This is an account of results in the RNAGym collection of RNA variant scans (doi:10.7554/elife.90254).

B1: LINE1-full (parent)
chain: UACGUAGGUGGUUUUCCCCUGAUAGUGCUAAGGGGGCCUGGAAGUUUGGACUGGGCAGAGCUCAACACAGCGUGGCAAAGUGGCUGUGGCUAGACUGCCUCUCUGGAUUCCUCGUCACUCAGCAGGGCAUCUCUGAGAGAAAUGCC

Read counts are not given, so values of variants with three or more changes are uncertain.

The variants in this data set derive from B1. As to the kind of experiment: self-cleavage, relative activity (ratio to wild type); higher = more cleavage; in vitro, sequencing; the parent is a self-cleaving ribozyme.
As for U52C A57G U109A, the self-cleavage was determined as 0.3.

Regarding A57U U73A C120U, the self-cleavage was 0.11.

As for A57G U130C A136G, the self-cleavage is 1.15.

With A57G U102C G135A, the self-cleavage came out at 0.33.

Take A57U A117G G144A: the self-cleavage turned out to be 0.27.

Turning to A57G U87A U109C, the self-cleavage amounted to 0.04.

Take G54A U96A A121G A136G U143A: the self-cleavage was found to be 0.03.

Turning to A57G A107G A141G, the self-cleavage turned out to be 0.99.

Turning to A57U A65G A94U, the self-cleavage amounted to 0.05.

On to G55C G72C U102C, for which the self-cleavage was 0.11.

Regarding C51U C103U U130C A140U, the self-cleavage was determined as 0.71.

Regarding G55U G70U U87A U109C, the self-cleavage was 0.01.

Regarding U52C U91A U109A U119A, the self-cleavage stood at 0.95.

As for C51U U115C A117U, the self-cleavage is 1.3.

With A57U A69G A141G, the self-cleavage is 0.1.

U52C A78G U81A U132C: the self-cleavage was found to be 0.28.

Turning to A57C A64G U112A G125A, the self-cleavage is 0.23.

In the case of U52A A77G C113A, the self-cleavage was found to be 1.92.

Regarding A57G A117G A138G, the self-cleavage was found to be 0.97.

G54A U85C C146U: the self-cleavage was determined as 0.06.

Take U52A A57G U109C: the self-cleavage is 0.3.

On to C56U U108C A136G, for which the self-cleavage turned out to be 0.24.

C51U U62C U109C: the self-cleavage was 0.25.

Turning to C51U A107G U134A U143A, the self-cleavage is 0.86.

As for C56U U62A U119A, the self-cleavage was found to be 0.05.

Regarding C51A U85C A140G, the self-cleavage was found to be 0.11.

With U52C C71U U100A U115A A117U, the self-cleavage turned out to be 0.07.

Turning to G53A A65U A121G, the self-cleavage came to 0.13.

With A57U A77U A107G U112C, the self-cleavage came out at 0.15.

For the variant C56U U108A U119C A141G, the self-cleavage was found to be 0.1.

In the case of U52A C56U C68A A77U, the self-cleavage came to 0.04.

Take U52C U62C C90G: the self-cleavage was determined as 0.

For A57G A94U A121G, the self-cleavage is 1.48.

For the variant G54C A94G U119A A124U A136G, the self-cleavage came out at 1.28.

In the case of A57G U73A U143C, the self-cleavage turned out to be 0.42.

A57G A64U G83A A129U: the self-cleavage is 0.06.

For the variant U52C U96A U115C, the self-cleavage is 0.1.

Turning to A57U C71U U108C U119C A141G, the self-cleavage was 0.12.

For A57G C68U U134C, the self-cleavage came out at 0.14.

Consider U52C A64C A142G, for which the self-cleavage was found to be 0.61.

In the case of C51U C61A A67C U100C, the self-cleavage was 0.12.

U52A U73C G75U A77G: the self-cleavage is 0.43.

Take U52C A69G A77G C103A A136U: the self-cleavage was 1.02.

For the variant A57G C71U U96C U130C, the self-cleavage was 2.63.

Regarding U52C U62A A79C A129G, the self-cleavage is 0.

In the case of U52C G58A U73C U85A A117U, the self-cleavage stood at 0.02.

Turning to A57U G89A A129G, the self-cleavage was found to be 0.02.

On to A57U U91C A117U, for which the self-cleavage came out at 0.08.

As for A57G G80U A107G, the self-cleavage was found to be 0.63.

On to U52C A77U U115C, for which the self-cleavage was found to be 2.04.

As to A57G A64U A69G, the self-cleavage amounted to 0.1.

For A57G A117G U143A, the self-cleavage came out at 0.77.

U52A A65G U100C U112C A141G: the self-cleavage was found to be 0.

For G53U A65G A141G, the self-cleavage is 0.11.

Regarding A57G A64G U73C A117U, the self-cleavage came out at 0.35.

With C51U U85C A117U U130C, the self-cleavage is 0.26.

Consider U52G U91C A142G C146U, for which the self-cleavage was 0.57.

With A57U U62C A64U U100A A141G A142G, the self-cleavage is 0.05.

As to A57G U62A U102A, the self-cleavage was determined as 0.13.

With A50U U100C U134C, the self-cleavage worked out at 1.38.

Consider U52C A79U U104A A141G, for which the self-cleavage was found to be 2.43.

For the variant U52A U96C U102A U112C G114A U134A, the self-cleavage stood at 0.

For A57U A64G A79G U81C A141G, the self-cleavage is 0.

In the case of A50U U73C A136G A142G G144A, the self-cleavage came out at 2.01.

As for U52C A67G U134C, the self-cleavage is 0.5.

Regarding G53A A78G U119C A138U A142G, the self-cleavage amounted to 1.98.

For U52C U62A A78G U108C, the self-cleavage was found to be 0.

For G54C G60A U102A, the self-cleavage is 0.03.

Turning to U52A A67G C71U U112C, the self-cleavage worked out at 0.06.

In the case of U52C G75A U85A U132C, the self-cleavage was determined as 0.04.

As to G54A A124U U134C, the self-cleavage stood at 0.7.

Regarding U52C A136U A140U, the self-cleavage was 1.16.

Consider U52C G106C A141G, for which the self-cleavage is 0.8.

U52C U115A A121G: the self-cleavage worked out at 0.28.

Take A57U G106U U119A: the self-cleavage came out at 0.11.

For U52C U85A C90U A136G, the self-cleavage is 0.07.

With U52A U104A C123G, the self-cleavage was 1.06.

Consider U52C U85G U132A, for which the self-cleavage came out at 0.

Consider A57G A59G U115C A117U, for which the self-cleavage was 0.16.

As to A57G C66A U81C U109A, the self-cleavage amounted to 0.04.

As for A57G C71U U85C U115C A138G, the self-cleavage stood at 0.29.

Turning to G54U A59C A136U A138U, the self-cleavage is 0.59.

For G53U A79G U104A U130C, the self-cleavage was found to be 1.68.

With G55U A78G C113U, the self-cleavage came out at 0.09.

With A57G U96A U109A, the self-cleavage came out at 0.22.

With U52A A129G A138U, the self-cleavage came to 1.34.

U52A U108A U132C: the self-cleavage worked out at 2.12.

For U52C U87A A124U, the self-cleavage worked out at 0.

As for G54A U115C A138G, the self-cleavage was 1.48.

Take C51U A57C A141G: the self-cleavage worked out at 0.01.

For the variant G53A A57U A79G, the self-cleavage is 0.09.

In the case of U52A U62C U108C, the self-cleavage stood at 0.

Take A57U U73A U102A U132C A138U: the self-cleavage worked out at 0.

In the case of A57U A67G U104C, the self-cleavage turned out to be 0.

Consider A57G C110A A136G, for which the self-cleavage came out at 1.3.

For A57G U112C A138G, the self-cleavage is 0.62.

With A57U A64G U100C U130C, the self-cleavage stood at 0.45.

A57U U81C A92U: the self-cleavage was found to be 0.08.

Regarding A50U C71U G89A, the self-cleavage was found to be 0.01.

For U52C U96A U119C A142G, the self-cleavage came out at 0.12.

With G53A C56U U62C A78U, the self-cleavage turned out to be 0.02.

Regarding G53A A67U A78G, the self-cleavage was found to be 0.04.

For A57U A64U U73A U115C, the self-cleavage is 0.08.

As for A57G U104C G122U, the self-cleavage is 0.7.

For the variant U52G A57C G74A A140G, the self-cleavage was 0.16.

A50U U100C A107G A124G: the self-cleavage worked out at 0.

On to G55A A59G G137A, for which the self-cleavage was 0.03.

For A57G A69U G144A, the self-cleavage was 0.04.

On to A57G U73C G126A, for which the self-cleavage stood at 1.26.

On to G54A U81C U96C U112A U130C A136G, for which the self-cleavage was determined as 0.

With A57C C63A A129C, the self-cleavage turned out to be 0.07.

For A57C A77G C98U, the self-cleavage was found to be 0.03.

With C56U A92G U102C A140G, the self-cleavage is 0.04.

For the variant U52C U62C U104A, the self-cleavage is 0.07.

For A57G U132C C133A U143C, the self-cleavage came out at 0.63.

With A57U A78U C90G, the self-cleavage was found to be 0.06.

A57G U115C A140G: the self-cleavage is 0.77.

On to A57G A64U A77G A129G, for which the self-cleavage came to 0.14.

As to U52C U108C U143C, the self-cleavage came to 2.04.

Turning to G55A U73A U112A A136G, the self-cleavage is 0.19.

As to U52A A67G U73A U112A U132C, the self-cleavage was 0.58.

U52C A79G C95U U109C: the self-cleavage amounted to 0.05.

For the variant A57G U81A A121C A141G, the self-cleavage is 1.58.

With G54A A64G C131G, the self-cleavage worked out at 0.2.

With U52C A92U U112C, the self-cleavage amounted to 1.13.

U52C A117G A138G A142G: the self-cleavage turned out to be 2.63.

On to A57G A77U A94G A129G, for which the self-cleavage worked out at 0.

On to U52A U91C U115A, for which the self-cleavage is 0.78.

On to U52A C56U A94G U115C, for which the self-cleavage came to 0.07.

Take A57G A78G A94G: the self-cleavage worked out at 0.

As for A57G C84G U85C, the self-cleavage was found to be 0.14.

In the case of G53U A77U U130C, the self-cleavage is 1.84.

Consider G54A A77G A140G, for which the self-cleavage was 0.77.

As for A57G C71A A92G G93U U104C A141G, the self-cleavage stood at 0.

As for A50U U62C U115G, the self-cleavage stood at 0.

As to U52A A77U G122A, the self-cleavage amounted to 1.05.

On to C56U A79G C101U, for which the self-cleavage worked out at 0.1.

A57G A77U U100C: the self-cleavage stood at 1.73.

With A57U A64C G80A A129C, the self-cleavage was 0.15.

Consider G55A G75U U87C U109G A124G A138G, for which the self-cleavage worked out at 0.

Consider G54A A67C A79G G114U, for which the self-cleavage is 0.15.

A57G C128U U132C A140G: the self-cleavage is 0.69.

As to A57G A59G C63A U115C A136G, the self-cleavage was determined as 0.06.

As for U52C C76U U108G, the self-cleavage came to 1.9.

Regarding G55C A64G A142G, the self-cleavage stood at 0.1.

In the case of U52A A64U U87A, the self-cleavage was 0.05.

For the variant A57G A67G U115C A117U, the self-cleavage stood at 0.48.

For G53A A69G U132C A138G, the self-cleavage stood at 0.64.

Take U52A U104G G106A A129G U130C: the self-cleavage amounted to 2.74.

Consider U52C C68U U104A A141G, for which the self-cleavage worked out at 0.11.

Consider U52A A69G U81A U104A, for which the self-cleavage worked out at 0.44.

With A57U A65G U104C, the self-cleavage amounted to 0.

Turning to A50U U108C U132C, the self-cleavage stood at 2.12.

Turning to U52A A64G A77G, the self-cleavage came to 0.46.

Regarding A57G A64U A65G U100C C103A, the self-cleavage stood at 0.13.

As to G54U A65G A67C U100C, the self-cleavage was found to be 0.06.

With A50U U73A A79G U104C, the self-cleavage amounted to 1.09.

On to C56A A67G A92G, for which the self-cleavage was 0.18.

As for G53A A59U A138G, the self-cleavage is 0.47.

For A57G A59G G105A A121G, the self-cleavage is 0.

For G54A U85C U104G, the self-cleavage was 0.

With A50U G74A G82U U102C, the self-cleavage came to 0.87.

With A50U U85C U134C, the self-cleavage came to 0.12.

Regarding U52C A129G A140G, the self-cleavage was determined as 2.16.

For the variant A57U U87C U115A, the self-cleavage was determined as 0.09.

Consider A57U U109C A117U, for which the self-cleavage worked out at 0.15.

Turning to A50U A136U U143C, the self-cleavage came out at 0.17.
